# The other results are listed elsewhere or left out.
# T1: UNK ZnF1-3 (human, UniProt Q9C0B0 31-174)
# T1 sequence: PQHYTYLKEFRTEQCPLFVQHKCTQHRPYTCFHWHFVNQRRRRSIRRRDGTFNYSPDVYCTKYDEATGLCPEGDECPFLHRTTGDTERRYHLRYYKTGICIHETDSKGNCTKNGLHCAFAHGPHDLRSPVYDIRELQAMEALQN
# B1: chr8:48265483:48265484:-_ENSMUSG00000038143_ENSMUST00000079195|mus_mus|FALSE|FALSE (ssRNA)
# RNA: GGGAGUUCUACAGUCCGACGAUCAUAUCUUAAAAAGUAACACAAUCCAAAAUGGAUAUUUCACACAACACUACAUAUACAACAUGAACACAAUAUUACCAUAUGGAGGGACUUUCAAAUAUAGACUUACAAAAAUCCCUGUCCCAACAGAGGAUUGAGCAUCA
# B2: 63412843_63413052_7627_CDS_ENSMUSG00000030451_ENSMUST00000076226|mouse|control|control (ssRNA)
# RNA: GGGAGUUCUACAGUCCGACGAUCGUGGUCUAGCAGCCACCCAACCAAGGCUUCCACACCAGGCAAACCAGAUGCAUUCCCAGAGGUGCCGGUGAGCGACUUCAGAGCAAACUCUAUAUUUUUCCUUGGAAAUCCCAUUUCCAUCAACAGAGGAUUGAGCAUCA
# B3: chr18:34659469:34659470:-_ENSMUSG00000036501_ENSMUST00000040506|mus_hu|FALSE|FALSE (ssRNA)
# RNA: GGGAGUUCUACAGUCCGACGAUCGUCAUUUAUGGCUGUUUGAGAUUAUGGCAGAAGAUCAGCCUGUAGUUCCUCAUUGAAGAAAUGCAGAACUCGAUCAGUACUUCAGCAGUUAAUCGUUGGAACCGCGAUGCCCCGUUCCCUCAACAGAGGAUUGAGCAUCA
# B4: chrX:112058718:112058719:-_ENSG00000126016_ENST00000371959|hu_mus|FALSE|FALSE (ssRNA)
# RNA: GGGAGUUCUACAGUCCGACGAUCCAACCAUCUGCUGAGCUCUAGAGACCAUAGCAAAAGGGUCAGCUGGCAUGGGCUGAUAAGAAGCAGACUGCUGAGCCCGAGGCAUAGCUGAGUAGGCUUCUCCUGGCUGCUGCUGCGCUGCAACAGAGGAUUGAGCAUCA
# B5: chr19:16212804:16212805:+_ENSG00000167460_ENST00000300933|hu_mus|hu_hu_hu_mus_False|68_78 (ssRNA)
# RNA: GGGAGUUCUACAGUCCGACGAUCAACAAUUCUGGAGUGAAGGAAAGAUGUAACAUGCAAUUAAUUACCAUCUAUUACAGAAGGCACAUGGGCAACAAUGAUCACCCCAGCAUUCUCGCUUGGAAUGCUUAAAGACAAUCUGUUCAACAGAGGAUUGAGCAUCA
# B6: chr13:36245089:36245090:+_ENSG00000172915_ENST00000537702|perfect_dup|FALSE|FALSE (ssRNA)
# RNA: GGGAGUUCUACAGUCCGACGAUCUUCUGCUGCUUCUCUUCAGUACCUGUUCUGAUGCUCAUAAUGCCACCGAUUAAAAUCUAUAUUAAAAGCUACAAUGCUGCCGGAAGCCAUGCCAGUGAUCAGAGUCCUUUGGUCAUGGGACAACAGAGGAUUGAGCAUCA
# Biological target: T1, UNK ZnF1-3
# Assay: nsRBNS (natural sequence RNA bind-n-seq); RBNS binding buffer (assumed for nsRBNS): 25 mM Tris pH 7.5, 150 mM KCl, 3 mM MgCl2, 0.01% Triton X-100, 500 ug/ml BSA, 20 U/ml SUPERase-In, 4 C; UNK is unkempt and MSI1 is Musashi-1; names of the RNAs are library labels; protein concentration not given here; high values mean tight binding
row,Binder,binding signal
1,B1,0.866 enrichment R
2,B2,1.31 enrichment R
3,B3,0.674 enrichment R
4,B4,0.976 enrichment R
5,B5,0.918 enrichment R
6,B6,1.28 enrichment R

# Source: PMC12136788
